Measurements taken from patent publication US20170368082A1, “FORMULATIONS OF BRINCIDOFOVIR” (priority 2016, published 2017).
Further values from the same series stand in other lists.

Assay: Tissue distribution by quantitative whole-body autoradiography (QWBA)
Type: in vivo, male Sprague Dawley and Long-Evans rats
Settings: LE rat, 2 mg/kg IV
Description: The study utilized 4 groups of male SD rats (albino), and 3 groups of male LE rats (pigmented); a total of 39 rats. All animals were obtained from Hilltop Lab Animals, Inc. (Scottdale, Pa.). […] Rats in Group 5 were administered a single 2-h IV infusion of [^14C]brincidofovir at a target dose of 2 mg/kg. […] Three dosing formulations (one for high dose IV, one for low dose IV, and one for PO dose) were prepared at QPS on the day of dosing. The IV formulation for Groups 1, 2, 3, and 4 contained a vehicle of 10 mM sodium phosphate buffer in 5% dextrose solution at pH 8.0(±0.1).
Each animal, at their respective termination time points, was euthanized for QWBA analysis immediately after blood collection. One rat per time point per Group was euthanized as listed below.
The blood samples were maintained on wet ice (approximately 4° C.) and then centrifuged to obtain plasma within 1 h of the blood collection time. Centrifuge settings were recorded in the study notebook. Duplicate aliquots of plasma (0.050 mL) were analyzed for radioactivity using direct counting by LSC, and residual plasma was stored at approximately −70° C. and was saved for possible future analysis under a separate study protocol. Residual red blood cells were discarded as radioactive waste.
The pinna, distal limbs, hair, and tail were removed from each frozen carcass and each frozen carcass was embedded in an aqueous suspension of approximately 2% (w/v) carboxymethylcellulose and frozen into a block. The blocks were stored at approximately −20° C. prior to sectioning. Each blocked carcass was mounted on the object stage of a cryomicrotome (Leica CM3600 Cryomacrocut, Nussloch, Germany and Vibratome 9800, St. Louis, Mo.) maintained at approximately −20° C. and internal standards (3), which were plasma fortified with [^14C]-glucose at one concentration (approximately 0.05 μCi/mL), were placed into the frozen blocks, prior to sectioning, and were used for section thickness quality control. A number of whole-body sections (approximately 40 μm thick) were taken in the sagittal plane at various levels of interest using a whole-body cryomicrotome set at −20° C. Sagittal sections (20-50 μm thick) of frozen carcasses were exposed to phosphor imaging plates. Regions of images in tissues were converted to concentrations using standards. All of the major tissues, organs, and biological fluids were represented.
Tissue concentration data was determined for the following tissues and/or contents: adipose (brown and white), adrenal gland, bile (in duct), blood (cardiac), bone, bone marrow, brain (cerebrum, cerebellum, medulla), cecum (and contents), large intestine (and contents), epididymis, esophagus, eye (uvea and lens), Harderian gland, heart, kidney (cortex and medulla), liver, lung, lymph node, pancreas, pituitary gland, prostate gland, salivary gland, seminal vesicles, skeletal muscle, skin (pigmented and non-pigmented), small intestine (and contents), stomach (gastric mucosa and contents), spleen, spinal cord, testis, thymus, thyroid, and urinary bladder (and contents).
The imaging plate and sections were placed in light-tight exposure cassettes, in a copper-lined lead safe, for a 4-day exposure at room temperature. […] Quantification was performed by image densitometry using MCD image analysis software (v. 7.0, Interfocus Imaging Ltd) and a standard curve constructed from the integrated response [i.e., Molecular Dynamics Counts per square millimeter (MDC/mm^2)] and the nominal concentrations of the ^14C-calibration standards. The concentrations of radioactivity were expressed as the μg equivalents of [^14C]brincidofovir per gram sample (μg equiv/g). A lower limit of quantification (LLOQ) was applied to the data (See section 6.7.4).
Tissue concentrations that fell below the LLOQ were identified as being below the quantification limit (BQL). Tissue areas that were not visualized on autoradiographic images were identified as no sample (NS) and reported as BQL.

For `CCCCCCCCCCCCCCCCOCCCOP(=O)(O)CO[C@H](CO)Cn1ccc(N)nc1=O` [[^14C] brincidofovir], the Concentration of radioactivity (Adipose (brown), 2 h) was 0.356 μg equiv/g tissue, the Concentration of radioactivity (Adipose (brown), 8 h) was 0.099 μg equiv/g tissue and the Concentration of radioactivity (Adipose (brown), 24 h) was 0.050 μg equiv/g tissue. For the same compound, the Concentration of radioactivity (Adipose (brown), 72 h) was 0.039 μg equiv/g tissue, the Concentration of radioactivity (Adipose (white), 2 h) was 0.120 μg equiv/g tissue and the Concentration of radioactivity (Adipose (white), 8 h) was 0.015 μg equiv/g tissue. For the same compound, the Concentration of radioactivity (Adipose (white), 24 h) was 0.033 μg equiv/g tissue, the Concentration of radioactivity (Adipose (white), 72 h) was 0.005 μg equiv/g tissue and the Concentration of radioactivity (Adrenal Gland, 2 h) was 0.685 μg equiv/g tissue. For the same compound, the Concentration of radioactivity (Adrenal Gland, 8 h) was 0.440 μg equiv/g tissue, the Concentration of radioactivity (Adrenal Gland, 24 h) was 0.245 μg equiv/g tissue and the Concentration of radioactivity (Adrenal Gland, 72 h) was 0.167 μg equiv/g tissue. The Concentration of radioactivity (Bile (in duct), 2 h) was 32.663 μg equiv/g tissue, the Concentration of radioactivity (Bile (in duct), 8 h) was 3.781 μg equiv/g tissue and the Concentration of radioactivity (Bile (in duct), 24 h) was 0.097 μg equiv/g tissue. For the same compound, the Concentration of radioactivity (Bile (in duct), 72 h) was 0.069 μg equiv/g tissue, the Concentration of radioactivity (Blood (cardiac), 2 h) was 0.771 μg equiv/g tissue and the Concentration of radioactivity (Blood (cardiac), 8 h) was 0.178 μg equiv/g tissue. It also gave a Concentration of radioactivity (Blood (cardiac), 24 h) of 0.041 μg equiv/g tissue, a Concentration of radioactivity (Blood (cardiac), 72 h) of 0.010 μg equiv/g tissue and a Concentration of radioactivity (Bone Marrow, 2 h) of 0.596 μg equiv/g tissue. The Concentration of radioactivity (Bone Marrow, 8 h) was 0.225 μg equiv/g tissue, the Concentration of radioactivity (Bone Marrow, 24 h) was 0.163 μg equiv/g tissue and the Concentration of radioactivity (Bone Marrow, 72 h) was 0.074 μg equiv/g tissue. It also gave a Concentration of radioactivity (Bone, 2 h) of 0.022 μg equiv/g tissue, a Concentration of radioactivity (Bone, 8 h) of 0.017 μg equiv/g tissue and a Concentration of radioactivity (Bone, 24 h) of 0.019 μg equiv/g tissue. The Concentration of radioactivity (Bone, 72 h) was 0.010 μg equiv/g tissue, the Concentration of radioactivity (Brain (cerebellum), 2 h) was 0.172 μg equiv/g tissue and the Concentration of radioactivity (Brain (cerebellum), 8 h) was 0.036 μg equiv/g tissue. For the same compound, the Concentration of radioactivity (Brain (cerebellum), 24 h) was 0.020 μg equiv/g tissue, the Concentration of radioactivity (Brain (cerebellum), 72 h) was 0.012 μg equiv/g tissue and the Concentration of radioactivity (Brain (cerebrum), 2 h) was 0.150 μg equiv/g tissue. It also gave a Concentration of radioactivity (Brain (cerebrum), 8 h) of 0.030 μg equiv/g tissue, a Concentration of radioactivity (Brain (cerebrum), 24 h) of 0.016 μg equiv/g tissue and a Concentration of radioactivity (Brain (cerebrum), 72 h) of 0.006 μg equiv/g tissue. It also gave a Concentration of radioactivity (Brain (medulla), 2 h) of 0.101 μg equiv/g tissue, a Concentration of radioactivity (Brain (medulla), 8 h) of 0.027 μg equiv/g tissue and a Concentration of radioactivity (Brain (medulla), 24 h) of 0.019 μg equiv/g tissue. For the same compound, the Concentration of radioactivity (Brain (medulla), 72 h) was 0.006 μg equiv/g tissue, the Concentration of radioactivity (Cecum (contents), 2 h) was 0.051 μg equiv/g tissue and the Concentration of radioactivity (Cecum (contents), 8 h) was 30.663 μg equiv/g tissue. It also gave a Concentration of radioactivity (Cecum (contents), 24 h) of 3.948 μg equiv/g tissue, a Concentration of radioactivity (Cecum (contents), 72 h) of 0.191 μg equiv/g tissue and a Concentration of radioactivity (Cecum, 2 h) of 0.507 μg equiv/g tissue. For the same compound, the Concentration of radioactivity (Cecum, 8 h) was 0.696 μg equiv/g tissue, the Concentration of radioactivity (Cecum, 24 h) was 0.145 μg equiv/g tissue and the Concentration of radioactivity (Cecum, 72 h) was 0.090 μg equiv/g tissue. It also gave a Concentration of radioactivity (Epididymis, 2 h) of 0.328 μg equiv/g tissue, a Concentration of radioactivity (Epididymis, 8 h) of 0.088 μg equiv/g tissue and a Concentration of radioactivity (Epididymis, 24 h) of 0.089 μg equiv/g tissue. The Concentration of radioactivity (Epididymis, 72 h) was 0.037 μg equiv/g tissue, the Concentration of radioactivity (Esophagus, 2 h) was 0.425 μg equiv/g tissue and the Concentration of radioactivity (Esophagus, 8 h) was 0.346 μg equiv/g tissue. The Concentration of radioactivity (Esophagus, 24 h) was 0.134 μg equiv/g tissue, the Concentration of radioactivity (Esophagus, 72 h) was 0.036 μg equiv/g tissue and the Concentration of radioactivity (Eye (lens), 2 h) was “BQL (BQL = Value is below the LLOQ)”. The Concentration of radioactivity (Eye (lens), 8 h) was “BQL (BQL = Value is below the LLOQ)”, the Concentration of radioactivity (Eye (lens), 24 h) was “BQL (BQL = Value is below the LLOQ)” and the Concentration of radioactivity (Eye (lens), 72 h) was “BQL (BQL = Value is below the LLOQ)”. For the same compound, the Concentration of radioactivity (Eye (uveal tract), 2 h) was 0.352 μg equiv/g tissue, the Concentration of radioactivity (Eye (uveal tract), 8 h) was 0.144 μg equiv/g tissue and the Concentration of radioactivity (Eye (uveal tract), 24 h) was 0.092 μg equiv/g tissue. It also gave a Concentration of radioactivity (Eye (uveal tract), 72 h) of 0.061 μg equiv/g tissue, a Concentration of radioactivity (Harderian Gland, 2 h) of 0.300 μg equiv/g tissue and a Concentration of radioactivity (Harderian Gland, 8 h) of 0.162 μg equiv/g tissue. For the same compound, the Concentration of radioactivity (Harderian Gland, 24 h) was 0.116 μg equiv/g tissue, the Concentration of radioactivity (Harderian Gland, 72 h) was 0.100 μg equiv/g tissue and the Concentration of radioactivity (Heart, 2 h) was 0.373 μg equiv/g tissue. It also gave a Concentration of radioactivity (Heart, 8 h) of 0.109 μg equiv/g tissue, a Concentration of radioactivity (Heart, 24 h) of 0.040 μg equiv/g tissue and a Concentration of radioactivity (Heart, 72 h) of 0.025 μg equiv/g tissue. The Concentration of radioactivity (Kidney Cortex, 2 h) was 11.047 μg equiv/g tissue, the Concentration of radioactivity (Kidney Cortex, 8 h) was 8.188 μg equiv/g tissue and the Concentration of radioactivity (Kidney Cortex, 24 h) was 3.570 μg equiv/g tissue. The Concentration of radioactivity (Kidney Cortex, 72 h) was 0.772 μg equiv/g tissue, the Concentration of radioactivity (Kidney Medulla, 2 h) was 3.359 μg equiv/g tissue and the Concentration of radioactivity (Kidney Medulla, 8 h) was 1.362 μg equiv/g tissue. The Concentration of radioactivity (Kidney Medulla, 24 h) was 0.854 μg equiv/g tissue, the Concentration of radioactivity (Kidney Medulla, 72 h) was 0.257 μg equiv/g tissue and the Concentration of radioactivity (Large Intestine (contents), 2 h) was 0.059 μg equiv/g tissue. It also gave a Concentration of radioactivity (Large Intestine (contents), 8 h) of 48.477 μg equiv/g tissue, a Concentration of radioactivity (Large Intestine (contents), 24 h) of 4.244 μg equiv/g tissue and a Concentration of radioactivity (Large Intestine (contents), 72 h) of 0.335 μg equiv/g tissue. It also gave a Concentration of radioactivity (Large Intestine, 2 h) of 0.545 μg equiv/g tissue, a Concentration of radioactivity (Large Intestine, 8 h) of 1.028 μg equiv/g tissue and a Concentration of radioactivity (Large Intestine, 24 h) of 0.504 μg equiv/g tissue. For the same compound, the Concentration of radioactivity (Large Intestine, 72 h) was 0.128 μg equiv/g tissue, the Concentration of radioactivity (Liver, 2 h) was 34.158 μg equiv/g tissue and the Concentration of radioactivity (Liver, 8 h) was 10.631 μg equiv/g tissue.
